Measured values published in the CheMixHub viscosity set.

| Structure (SMILES) | viscosity (293.15 K, 100 kPa) | viscosity (293.15 K, 101 kPa) | viscosity (298.15 K, 101 kPa) | viscosity (303.15 K, 100 kPa) | viscosity (303.15 K, 101 kPa) | viscosity (313.15 K, 100 kPa) | viscosity (313.15 K, 101 kPa) | viscosity (318.15 K, 101 kPa) | viscosity (323.15 K, 100 kPa) | viscosity (323.15 K, 101 kPa) | viscosity (308.15 K, 101 kPa) |
| --- | --- | --- | --- | --- | --- | --- | --- | --- | --- | --- | --- |
| OCCO | 21.44 ± 2.1 mPa·s [study A] and 21.3 ± 4.3 mPa·s [study B] and 20.9 ± 4.2 mPa·s [study C] and 21.3 ± 4.3 mPa·s [study D] and 20.3 ± 3 mPa·s [study E] and 20.86 ± 0.16 mPa·s [study F] and 21.02 ± 0.063 mPa·s [study G] | 19.79 ± 0.26 mPa·s [study A] and 21.35 ± 0.45 mPa·s [study B] and 21.4 ± 0.6 mPa·s [study C] and 21.44 ± 2 mPa·s [study D] and 20.71 ± 0.2 mPa·s [study E] | 17.7 ± 0.7 mPa·s [study A] and 17.67 ± 0.48 mPa·s [study B] and 16.55 ± 0.35 mPa·s [study C] and 18.64 ± 0.38 mPa·s [study D] | 14.33 ± 1.4 mPa·s [study A] and 14.33 ± 2.9 mPa·s [study B] and 13.49 ± 0.61 mPa·s [study C] and 13.54 ± 0.081 mPa·s [study D] and 13.49 ± 0.55 mPa·s [study E] and 13.53 ± 0.12 mPa·s [study F] | 13.27 ± 0.19 mPa·s [study A] and 13.53 ± 0.091 mPa·s [study B] and 13.53 ± 0.091 mPa·s [study C] and 14.33 ± 1.3 mPa·s [study D] and 13.53 ± 0.092 mPa·s [study E] | 10.01 ± 1 mPa·s [study A] and 9.34 ± 0.61 mPa·s [study B] and 9.52 ± 0.2 mPa·s [study C] and 9.34 ± 0.38 mPa·s [study D] and 9.577 ± 3 mPa·s [study E] and 9.59 ± 0.072 mPa·s [study F] | 9.65 ± 0.39 mPa·s [study A] and 9.13 ± 0.13 mPa·s [study B] and 9.407 ± 0.31 mPa·s [study C] and 9.684 ± 0.25 mPa·s [study D] and 9.684 ± 0.063 mPa·s [study E] and 9.446 ± 0.053 mPa·s [study F] and 10.01 ± 0.93 mPa·s [study G] and 8.76 ± 0.1 mPa·s [study H] | 8.11 ± 0.33 mPa·s [study A] and 8.34 ± 0.23 mPa·s [study B] and 8.04 ± 0.18 mPa·s [study C] and 8.203 ± 0.21 mPa·s [study D] and 8.203 ± 0.054 mPa·s [study E] and 7.453 ± 0.17 mPa·s [study F] | 7.121 ± 0.71 mPa·s [study A] and 6.75 ± 0.6 mPa·s [study B] and 6.75 ± 0.27 mPa·s [study C] and 6.933 ± 0.052 mPa·s [study D] and 6.97 ± 0.021 mPa·s [study E] and 6.588 ± 0.11 mPa·s [study F] | 6.78 ± 0.28 mPa·s [study A] and 6.666 ± 0.093 mPa·s [study B] and 6.918 ± 0.69 mPa·s [study C] and 7.02 ± 0.15 mPa·s [study D] and 7.032 ± 0.18 mPa·s [study E] and 7.032 ± 0.047 mPa·s [study F] and 7.121 ± 0.66 mPa·s [study G] and 6.51 ± 0.07 mPa·s [study H] | – |
| CCC(=O)c1ccccc1 | – | – | – | – | – | – | – | – | – | – | 1.518 ± 0.047 mPa·s [study A] and 1.468 ± 0.013 mPa·s [study B] and 1.469 ± 0.061 mPa·s [study C] and 1.54 ± 0.035 mPa·s [study D] and 1.468 ± 0.02 mPa·s [study E] and 1.468 ± 0.019 mPa·s [study F] |

± gives the uncertainty stated by the source. Some entries of the source have several records that differ or are many. This list holds those alone. An entry can have further records. Results that share an entry are repeats across runs, samples, wells, individuals or studies. Records carry a tag for their origin. Letters hold for one entry only.
